Measured values published in the supplement of paper PMC10126150.
Sequences with one replicate were seen in a single cluster, so their values are uncertain.

The sequences below were run on ATP (assay: switch fluorescence ratio, 500 uM ATP over buffer (Cy3 cluster intensity, sum of 5 cycles each) (fold (ratio)); higher = stronger signal-on switching upon ATP binding; sequences stand for … in TCGTCGGCAGCGTCAGATGTGTATAAGAGACAGTTTTTTTTTTTTTTTTTTTTTTTTT…TC). Conditions: aptamer strand: ATP DNA aptamer (quencher-CACCTGGGGGAGTATTGCGGAGGAAGG + anchor), 100 nM annealed; ATP concentration: 500 uM; one replicate.
Procedure, shortened: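 Clusters carrying Cy3-labelled switching strands on a modified Illumina MiSeq flow-cell were annealed to 100 nM quencher-labelled ATP aptamer and imaged in selection buffer. They were imaged again after 15 min with 500 uM ATP at 22 °C, over five buffer/ATP cycles with NaOH stripping and re-annealing in between. For each cluster, the fluorescence ratio is the summed Cy3 intensity of the target cycles divided by that of the buffer cycles, averaged per switch-domain sequence. Clusters outside 100-1000 RFU were left out.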
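Further: ATP exposure 15 min at 22 °C before imaging.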

**Q.** For TGTGTTGACT, which switch fluorescence ratio is on record?
**A.** 0.974

**Q.** For TGTGTTGGGC, which switch fluorescence ratio is on record?
**A.** 0.977

**Q.** Which switch fluorescence ratio does the source give for TGTGTTGTGT here?
**A.** 0.984

**Q.** How did the switch fluorescence ratio turn out when TGTTAAACAC was run?
**A.** 1.1

**Q.** TGTTAAGACC was tested. Which switch fluorescence ratio did it give?
**A.** 1.07

**Q.** TGTTACAGAA was tested. Which switch fluorescence ratio did it give?
**A.** 1.06

**Q.** TGTTACTCCG was tested. Which switch fluorescence ratio did it give?
**A.** 1.09

**Q.** Which switch fluorescence ratio does the source give for TGTTAGGAGC here?
**A.** 1.04

**Q.** How did the switch fluorescence ratio turn out when TGTTATATCG was run?
**A.** 1.01

**Q.** TGTTATATGA was tested. Which switch fluorescence ratio did it give?
**A.** 0.996

**Q.** With TGTTATGAA as the sequence, how does the switch fluorescence ratio read?
**A.** 1.02

**Q.** How did the switch fluorescence ratio turn out when TGTTATTCGG was run?
**A.** 0.998

**Q.** Which switch fluorescence ratio does the source give for TGTTCAAG here?
**A.** 1.01

**Q.** Which switch fluorescence ratio does the source give for TGTTCCACAT here?
**A.** 1.01

**Q.** For TGTTCCAG, which switch fluorescence ratio is on record?
**A.** 0.996

**Q.** With TGTTCCATAG as the sequence, how does the switch fluorescence ratio read?
**A.** 1.05

**Q.** Which switch fluorescence ratio does the source give for TGTTCCATAT here?
**A.** 1

**Q.** With TGTTCCGGTT as the sequence, how does the switch fluorescence ratio read?
**A.** 0.979

**Q.** How did the switch fluorescence ratio turn out when TGTTCGTCAA was run?
**A.** 1.03

**Q.** Which switch fluorescence ratio does the source give for TGTTCTAGCT here?
**A.** 1.01

**Q.** Which switch fluorescence ratio does the source give for TGTTCTGCC here?
**A.** 1.07

**Q.** TGTTCTGGTT was tested. Which switch fluorescence ratio did it give?
**A.** 1.02

**Q.** Which switch fluorescence ratio does the source give for TGTTGATAAC here?
**A.** 1.05

**Q.** With TGTTGATATA as the sequence, how does the switch fluorescence ratio read?
**A.** 0.998

**Q.** With TGTTGATGGA as the sequence, how does the switch fluorescence ratio read?
**A.** 1.04

**Q.** How did the switch fluorescence ratio turn out when TGTTGCTTTG was run?
**A.** 1.02

**Q.** With TGTTGGAAGT as the sequence, how does the switch fluorescence ratio read?
**A.** 0.938

**Q.** How did the switch fluorescence ratio turn out when TGTTGGCTGT was run?
**A.** 1.01

**Q.** For TGTTGGGCC, which switch fluorescence ratio is on record?
**A.** 0.991

**Q.** TGTTGGTAAG was tested. Which switch fluorescence ratio did it give?
**A.** 0.972

**Q.** For TGTTGGTCGG, which switch fluorescence ratio is on record?
**A.** 0.969

**Q.** With TGTTGTAAGG as the sequence, how does the switch fluorescence ratio read?
**A.** 1.06

**Q.** Which switch fluorescence ratio does the source give for TGTTGTAGAG here?
**A.** 1.01

**Q.** Which switch fluorescence ratio does the source give for TGTTGTGCGG here?
**A.** 1

**Q.** With TGTTTAAAT as the sequence, how does the switch fluorescence ratio read?
**A.** 1

**Q.** Which switch fluorescence ratio does the source give for TGTTTAAGCA here?
**A.** 0.999

**Q.** How did the switch fluorescence ratio turn out when TGTTTAATAG was run?
**A.** 0.976

**Q.** TGTTTATCGT was tested. Which switch fluorescence ratio did it give?
**A.** 1.08

**Q.** For TGTTTGGCCA, which switch fluorescence ratio is on record?
**A.** 1.01

**Q.** TGTTTTCCTA was tested. Which switch fluorescence ratio did it give?
**A.** 1.01

**Q.** With TGTTTTGCG as the sequence, how does the switch fluorescence ratio read?
**A.** 1.01

**Q.** For TGTTTTGCGC, which switch fluorescence ratio is on record?
**A.** 1

**Q.** TGTTTTGTTA was tested. Which switch fluorescence ratio did it give?
**A.** 0.992

**Q.** Which switch fluorescence ratio does the source give for TTAAAAATTC here?
**A.** 0.941

**Q.** How did the switch fluorescence ratio turn out when TTAAAACCAG was run?
**A.** 0.997

**Q.** Which switch fluorescence ratio does the source give for TTAAAACCCG here?
**A.** 1.08

**Q.** How did the switch fluorescence ratio turn out when TTAAAACGCG was run?
**A.** 1.05

**Q.** Which switch fluorescence ratio does the source give for TTAAAATCCG here?
**A.** 1.05

**Q.** TTAAACATGT was tested. Which switch fluorescence ratio did it give?
**A.** 1.02

**Q.** Which switch fluorescence ratio does the source give for TTAAACGAAA here?
**A.** 1.04

**Q.** For TTAAACTCGT, which switch fluorescence ratio is on record?
**A.** 1.07

**Q.** For TTAAAGATTC, which switch fluorescence ratio is on record?
**A.** 1.03

**Q.** TTAAAGTTT was tested. Which switch fluorescence ratio did it give?
**A.** 1.04

**Q.** Which switch fluorescence ratio does the source give for TTAAATATGA here?
**A.** 0.965

**Q.** For TTAAATCAAT, which switch fluorescence ratio is on record?
**A.** 0.986

**Q.** For TTAAATCAT, which switch fluorescence ratio is on record?
**A.** 0.988

**Q.** Which switch fluorescence ratio does the source give for TTAACATTAG here?
**A.** 0.976

**Q.** Which switch fluorescence ratio does the source give for TTAACCACC here?
**A.** 1.2

**Q.** How did the switch fluorescence ratio turn out when TTAACCATAA was run?
**A.** 1.03

**Q.** With TTAACCCGGC as the sequence, how does the switch fluorescence ratio read?
**A.** 1.04

**Q.** TTAACCCTGC was tested. Which switch fluorescence ratio did it give?
**A.** 1.04

**Q.** TTAACCTTCC was tested. Which switch fluorescence ratio did it give?
**A.** 1.7

**Q.** Which switch fluorescence ratio does the source give for TTAACGGTGC here?
**A.** 1.04

**Q.** How did the switch fluorescence ratio turn out when TTAACTAGTT was run?
**A.** 1

**Q.** For TTAAGAAAAC, which switch fluorescence ratio is on record?
**A.** 1.02

**Q.** Which switch fluorescence ratio does the source give for TTAAGACAGG here?
**A.** 0.98

**Q.** For TTAAGAGCGT, which switch fluorescence ratio is on record?
**A.** 0.967

**Q.** With TTAAGAGTTG as the sequence, how does the switch fluorescence ratio read?
**A.** 0.962

**Q.** TTAAGCAGGT was tested. Which switch fluorescence ratio did it give?
**A.** 0.98

**Q.** How did the switch fluorescence ratio turn out when TTAAGCATCA was run?
**A.** 1.09

**Q.** With TTAAGCCGAA as the sequence, how does the switch fluorescence ratio read?
**A.** 1.03

**Q.** With TTAAGCGGAT as the sequence, how does the switch fluorescence ratio read?
**A.** 0.993

**Q.** With TTAAGCTTGT as the sequence, how does the switch fluorescence ratio read?
**A.** 0.933

**Q.** How did the switch fluorescence ratio turn out when TTAAGGACAG was run?
**A.** 1.02

**Q.** How did the switch fluorescence ratio turn out when TTAAGGAGG was run?
**A.** 0.992

**Q.** Which switch fluorescence ratio does the source give for TTAAGGGACT here?
**A.** 0.991

**Q.** Which switch fluorescence ratio does the source give for TTAAGTATTC here?
**A.** 0.988

**Q.** How did the switch fluorescence ratio turn out when TTAAGTCCAG was run?
**A.** 0.994

**Q.** TTAAGTTCT was tested. Which switch fluorescence ratio did it give?
**A.** 0.992

**Q.** Which switch fluorescence ratio does the source give for TTAATAGACG here?
**A.** 1.03

**Q.** Which switch fluorescence ratio does the source give for TTAATCCGCA here?
**A.** 4.47

**Q.** How did the switch fluorescence ratio turn out when TTAATGACCC was run?
**A.** 1.08

**Q.** For TTAATGCCGC, which switch fluorescence ratio is on record?
**A.** 1.01

**Q.** With TTAATTATAG as the sequence, how does the switch fluorescence ratio read?
**A.** 0.954

**Q.** TTAATTCAAT was tested. Which switch fluorescence ratio did it give?
**A.** 0.987

**Q.** TTAATTTAGC was tested. Which switch fluorescence ratio did it give?
**A.** 1.01

**Q.** TTAATTTGTA was tested. Which switch fluorescence ratio did it give?
**A.** 0.985

**Q.** With TTACAAGCTC as the sequence, how does the switch fluorescence ratio read?
**A.** 1.1

**Q.** TTACCCAGTT was tested. Which switch fluorescence ratio did it give?
**A.** 1.07

**Q.** TTACCCCCTT was tested. Which switch fluorescence ratio did it give?
**A.** 1.04

**Q.** For TTACCCCGGA, which switch fluorescence ratio is on record?
**A.** 1.05

**Q.** For TTACCGGACA, which switch fluorescence ratio is on record?
**A.** 1.17

**Q.** How did the switch fluorescence ratio turn out when TTACCGGTGC was run?
**A.** 1.12

**Q.** For TTACCGTAGT, which switch fluorescence ratio is on record?
**A.** 1.11

**Q.** Which switch fluorescence ratio does the source give for TTACCTAATC here?
**A.** 1.06

**Q.** With TTACGAATAC as the sequence, how does the switch fluorescence ratio read?
**A.** 2.22

**Q.** TTACGAATAG was tested. Which switch fluorescence ratio did it give?
**A.** 1.02

**Q.** With TTACGAGTCC as the sequence, how does the switch fluorescence ratio read?
**A.** 1.03

**Q.** TTACGATTTC was tested. Which switch fluorescence ratio did it give?
**A.** 1

**Q.** Which switch fluorescence ratio does the source give for TTACGCAGCG here?
**A.** 1.01

**Q.** TTACGGCACG was tested. Which switch fluorescence ratio did it give?
**A.** 1.07
